# Among all 310,000 compounds or so, about 14,000 (4.5%) showed an effect of 50% or more. The effect is printed as a negative number. Some of the results follow.
# Target: human ether-à-go-go-related gene (hERG) potassium channel (human, UniProt Q12809)
# Test: primary screen, population patch clamp on CHO cells stably expressing hERG
# 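Note: peak tail current of the secondary pulse compared with the same well before compound.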
# Chain of human ether-à-go-go-related gene (hERG) potassium channel (Q12809 whole entry, looked up): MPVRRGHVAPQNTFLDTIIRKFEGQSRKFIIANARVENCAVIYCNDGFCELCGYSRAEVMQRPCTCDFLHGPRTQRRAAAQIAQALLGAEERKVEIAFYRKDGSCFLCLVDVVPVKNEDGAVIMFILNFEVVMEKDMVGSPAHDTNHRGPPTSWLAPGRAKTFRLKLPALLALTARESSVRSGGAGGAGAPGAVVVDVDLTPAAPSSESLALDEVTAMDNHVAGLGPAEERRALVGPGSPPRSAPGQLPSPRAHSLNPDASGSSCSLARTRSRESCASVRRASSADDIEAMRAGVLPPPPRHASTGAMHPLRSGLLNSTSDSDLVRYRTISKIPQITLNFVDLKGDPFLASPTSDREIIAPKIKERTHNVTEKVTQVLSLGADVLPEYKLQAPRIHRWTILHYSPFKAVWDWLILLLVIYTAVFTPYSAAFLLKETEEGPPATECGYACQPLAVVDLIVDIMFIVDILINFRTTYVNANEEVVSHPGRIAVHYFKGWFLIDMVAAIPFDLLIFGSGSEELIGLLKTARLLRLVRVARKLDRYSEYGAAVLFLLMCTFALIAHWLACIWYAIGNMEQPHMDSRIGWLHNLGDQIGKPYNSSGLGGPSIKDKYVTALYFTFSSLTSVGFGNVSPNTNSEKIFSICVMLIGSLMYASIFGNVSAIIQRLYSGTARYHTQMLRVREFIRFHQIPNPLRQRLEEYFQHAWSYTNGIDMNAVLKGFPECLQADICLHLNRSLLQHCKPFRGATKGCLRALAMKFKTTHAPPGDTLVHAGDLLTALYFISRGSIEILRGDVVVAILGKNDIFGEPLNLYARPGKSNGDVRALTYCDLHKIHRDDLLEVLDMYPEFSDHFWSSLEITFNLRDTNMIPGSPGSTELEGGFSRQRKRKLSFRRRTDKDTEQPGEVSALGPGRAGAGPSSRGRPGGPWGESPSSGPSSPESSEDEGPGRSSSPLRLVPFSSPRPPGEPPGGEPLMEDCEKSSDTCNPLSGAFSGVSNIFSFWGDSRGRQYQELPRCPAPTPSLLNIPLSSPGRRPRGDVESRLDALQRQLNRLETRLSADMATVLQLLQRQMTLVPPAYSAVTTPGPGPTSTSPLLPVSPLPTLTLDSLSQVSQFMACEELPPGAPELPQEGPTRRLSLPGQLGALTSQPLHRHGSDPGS
row,Compound,"hERG current change (%, negative = inhibition) at 10uM"
1,O=P(COc1ccccc1)(c1ccccc1)c1ccccc1,-13.5%
2,CC(C)c1cc(C(N)=O)c(NC(=O)c2cccc(COc3ccc(Br)cc3)c2)s1,21.9%
3,C/C=C/c1ccc(OCCN2C(=O)NC(C)(C)C2=O)c(OC)c1,6.58%
4,CNC(=O)NC(=O)C(C)OC(=O)c1cc2c(s1)CCCCC2 (stereo not shown),-7.89%
5,C/C(=N/NC(=O)CNC(=O)C1COc2ccccc2O1)c1cccc(O)c1 (stereo not shown),-5.92%
6,CCOC(=O)c1cc(C#N)c(Oc2ccc(F)cc2)nc1-c1ccccc1,12.9%
7,Cc1cc(OC(=O)c2ccc(C)c(C)c2)c([N+](=O)[O-])c(=O)[nH]1,21.6%
8,O=C(Nc1ccc(Br)cc1)c1ccc2c(c1)OCO2,14.5%
9,CNc1oc(-c2cccs2)nc1C#N,-1.58%
10,O=C(CNC(=O)[C@@H]1Cc2ccccc2CN1)NCc1ccco1,4.85%
11,CC(C)N1C(=O)/C(=C/C=C/c2ccco2)C(=O)N(Cc2ccco2)C1=O,8.31%
12,COc1cc(NC(=O)c2ccc3c(c2)C(=O)N(CCC(C)C)C3=O)c(C(=O)O)cc1OC,20.5%
13,CC(C)Oc1cccc(C(=O)C2CCCN(C(=O)c3ccc4c(c3)OCO4)C2)c1 (stereo not shown),-26.9%
14,O=C(NCCCNC(=O)c1cnccn1)c1cccc(F)c1,10.2%
15,CCOc1ccc(C(=O)Nc2ccc3[nH]ncc3c2)cc1,24.1%
16,CCOc1ccccc1NC(=O)Cn1c(=O)c(OCC)nc2cnccc21,5.65%
17,Cc1cc(Cl)ccc1C(=O)C1CCCN(C2CCSCC2)C1 (stereo not shown),-74.3%
18,Cn1c(N)c(C(=O)CSc2nc(C3CC3)n(-c3ccccc3)n2)c(=O)[nH]c1=O,-3.17%
19,CCC1CCc2c(sc(NC(C)=O)c2C#N)C1 (stereo not shown),1.72%
20,CCN(CC)S(=O)(=O)c1ccc(OC)c(NC(=O)CSc2cc(C)ccc2C)c1,-13.3%
21,CCOc1ccc(NC(=O)CN(c2ccc(OCC)cc2)S(=O)(=O)c2c(C)[nH]c(=O)[nH]c2=O)cc1,16.2%
22,Cc1nc(SCc2ccc(C(=O)O)cc2)c2c(C)c(C)sc2n1,-10.3%

row,Compound,"hERG current change (%, negative = inhibition) at 10uM"
1,Cc1nnc(SCC(=O)N(Cc2ccccc2)C(C)(C)C)[nH]c1=O,7.87%
2,Cn1c(=S)ccc2ccccc21,9.22%
3,CN(C)c1nc(Oc2ccc(=O)[nH]n2)nc(N2CCCCC2)n1,-0.603%
4,COC(=O)/C(=C\c1ccc2c(c1)c1ccccc1n2C)NC(=O)c1ccccc1,-7.06%
5,CC1C(=O)N(Cc2ccc(F)cc2)c2ccccc2N1C(=O)c1c(F)cccc1F (stereo not shown),4.55%
6,CSc1n[nH]c(NCc2ccc(C)cc2)n1,8.19%
7,O=C(NCCc1ccccc1)c1cccc(S(=O)(=O)NCc2ccccc2)c1,-47.7%
8,CCN(CC(=O)Nc1c(F)cccc1F)C(=O)c1ccc(N2CCCCC2)c([N+](=O)[O-])c1,-39.2%
9,CC(C)n1c(CNC(=O)c2ccccc2)nc2ccccc21,-3.26%
10,COc1ccc(OCC#CCn2ccnc2)cc1.O=C(O)C(=O)O,13.5%
11,COc1ccc(OC)c(NC(=O)C(=O)NNC(=O)c2cccs2)c1,10.9%
12,COc1cccc(OCc2cc(C(=O)NCc3cnc4ccccn34)no2)c1,-23.2%
13,Cc1noc(C)c1CSc1nnc(-c2cccnc2)n1C1CCCCC1C (stereo not shown),-20%
14,Cc1ccc(CSCC(=O)N(CCC(C)C)c2c(N)n(Cc3ccccc3)c(=O)[nH]c2=O)cc1,-32.1%
15,CCOC(=O)c1cc(C)n(CCc2ccccc2)c1C,-3.8%
16,O=C(Nc1ccc(Br)cc1)c1cccc(N2C(=O)C3C4C=CC(C4)C3C2=O)c1 (stereo not shown),-48.8%
17,Cc1nc(C(=O)Nc2ccccc2)sc1C(=O)Nc1ccccc1,-1.18%
18,Cc1cc(S(=O)(=O)c2ccc([N+](=O)[O-])cn2)ccc1Br,15.9%
19,Nc1c(-c2ccccc2Cl)cnn1-c1cccc([N+](=O)[O-])c1,-49.4%
20,COc1cc(-c2noc(C3CCCN(S(=O)(=O)c4cccc(Cl)c4)C3)n2)cc(OC)c1OC (stereo not shown),-1.7%
21,O=C(NCc1ccccc1)C1CCN(S(=O)(=O)c2cc([N+](=O)[O-])ccc2Cl)CC1,-7.61%
22,O=C(NCCCO)c1ccc2[nH]c3ccccc3c2c1,16.1%

row,Compound,"hERG current change (%, negative = inhibition) at 10uM"
1,O=C(Oc1cc(-c2ccccc2)no1)c1ccc(Cl)cc1,3.62%
2,COc1ccc(OC)c(/C=C2\SC(=S)N(NS(=O)(=O)c3ccccc3)C2=O)c1,-4.44%
3,CC(C)c1ccc2c(c1)C1(NN=C(c3ccccc3)S1)C(=O)N2 (stereo not shown),7.69%
4,CCn1c(/C=C/c2c(C)[nH]c3ccccc23)nc2ccccc2c1=O,-2.71%
5,Cc1c(Cl)cccc1NS(=O)(=O)c1ccc2c(c1)C1C=CCC1C(c1ccc(C(=O)O)cc1)N2 (stereo not shown),34.3%
6,CCOc1ccccc1/C=C(/NC(=O)c1ccccc1)C(=O)NC(C)c1ccccc1 (stereo not shown),-16.1%
7,O=C(c1cnn2c(C(F)F)cc(C3CC3)nc12)N1CCOCC1,5.6%
8,C=C1C(=O)O[C@@H]2C[C@@H](C)[C@@H]3C4OC4C(=O)[C@@]3(C)[C@@H](O)[C@H]12 (stereo partly shown),0.664%
9,O=C(/C=C/c1ccco1)NCCc1ccc(F)cc1,17.7%
10,Cc1nn(-c2cccc([N+](=O)[O-])c2)c(N)c1-c1ccccc1,-68.7%
11,O=S(=O)(Nc1nc2ccccc2[nH]1)c1ccc2ccccc2c1,10.3%
12,O=C(Cc1ccc([N+](=O)[O-])cc1)NNC(=O)c1ccc2c(c1)OCO2,-3.15%
13,CC1Oc2ccccc2C=C1/C=N/Nc1ccc(C(=O)O)cc1 (stereo not shown),8.16%
14,O=C(Nc1ccccc1C(=O)N1CCCCC1)NC1CCCCC1,-5.88%
15,CN1CCN(C(=O)CN2C(=O)CC(C)(C)S(=O)(=O)c3ccccc32)CC1,21.8%
16,C#CCN1C(=O)S/C(=C\c2ccc(-c3ccc(C(=O)O)cc3C)o2)C1=O,12.8%
17,Cc1ccc(C)c(N2CCN(C(=S)NC3CCCCC3)CC2)c1,-9.3%
18,CCOc1ccc2[nH]c(C(=O)N/N=C/c3ccccc3OC)cc2c1,37.4%
19,CCc1cccc2c1NC(=O)C21OCCO1,18.8%
20,CCc1cccc(C)c1N1C(=O)CC(C)(C)CC1=O,16.5%
21,O=C(c1ccc(F)cc1)c1c[nH]c(C(=O)NCCCN2CCOCC2)c1,-21%
22,C/C(=N\OC(=O)c1cccc(C(F)(F)F)c1)c1sc(-c2ccccc2)nc1C,7.94%

row,Compound,"hERG current change (%, negative = inhibition) at 10uM"
1,COc1ccnc(N=CNOCc2cccc(Cl)c2Cl)c1C#N,-12%
2,O=C(O)Cc1ccc(C(=O)c2ccccc2)s1,6.1%
3,Cc1ccc(NC(=O)CCC(=O)N/N=C/c2cccs2)cc1,-14.3%
4,CCOc1ccc(/C(O)=C2/C(=O)C(=O)N(CCCN3CCOCC3)C2c2ccc(F)cc2)cc1C (stereo not shown),17.9%
5,COc1ccc(NC(=O)CCNS(=O)(=O)c2cc(Br)cnc2N)c(OC)c1,8.51%
6,CCOc1cccc(C(=O)Nc2nnc(-c3cccs3)s2)c1,-0.326%
7,CC(=O)c1cccc(OCC(O)CN2CCN(C(=O)c3ccco3)CC2)c1 (stereo not shown),-2.19%
8,O=C(O)c1ccc(N2C(=O)CC(SC(=NCc3ccc4c(c3)OCO4)Nc3ccccc3)C2=O)cc1 (stereo not shown),13.9%
9,O=C(OCC(=O)N1CCCC1)c1ccc(Cl)nc1,-2.32%
10,O=C1NCCc2cc3c(cc21)OCO3,5.31%
11,COc1ccc(-n2c(C)cc(C(=O)COc3ccc(-n4cnnn4)cc3)c2C)cc1,3.05%
12,CCCN(C(=O)c1cc(S(=O)(=O)N(C)c2ccc(OCC)cc2)ccc1C)C1CCS(=O)(=O)C1 (stereo not shown),-27.6%
13,CCCNC(=O)CN(Cc1ccco1)S(=O)(=O)c1ccc(OCC)cc1,-36.7%
14,COc1ccc(/C=C/C2=NC(=C\N(C)C)/C(=O)O2)cc1,-37.6%
15,CC1CCCN(S(=O)(=O)c2ccc(Br)s2)C1 (stereo not shown),-8.65%
16,CCn1c(=O)c(NC(=O)c2ccccc2)c2n(c1=S)CCCCC2,2.77%
17,CCCN(CCC)C(=O)C1CCCN1S(=O)(=O)c1cccc2nsnc12 (stereo not shown),4.27%
18,O=C(C1CC(=O)N(C2CCCC2)C1)N1CCN(c2ccc(F)cc2)CC1 (stereo not shown),-17.7%
19,O=C(Nc1ccc2c(c1)OCCO2)c1ccc(Cl)c(S(=O)(=O)N2CCOCC2)c1,-32.3%
20,CCC/C=C(\CCC)C(NS(=O)(=O)c1ccc(C(F)(F)F)cc1)c1ccccc1 (stereo not shown),15.5%
21,COc1ccccc1NC(=O)c1ccc(CSc2ncccn2)cc1,6.1%
22,Cc1ccccc1OCc1nnc(SCC(=O)Nc2ccc3nc(SCC(=O)Nc4ccccc4)sc3c2)n1C,8.63%
